From PubChem BioAssay AID1963576 (National Center for Advancing Translational Sciences (NCATS), 2024)
About 60 (0.1%) of roughly 46,000 compounds were called active. Inconclusive results (about 3%) are left out. The call rests on the fitted dose curve; in most records, active means well fitted inhibition curve with a large enough effect; inconclusive means small, poorly fitted or top-dose-only effect; inactive means no such curve, though single readings can be large or run the other way. The list shows a part of the results.

assay: Primary qHTS assay for Inhibitors of ovarian cancer metastasis using an organotypic tumor microenvironment (TME) model.; further: nearly all actives have a fitted effect of over 65% in size;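 on Potency: count of GFP cancer cells still attached after washing and fixation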;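 on activity change, negative = inhibition: plate controls were DMSO wells for no effect and tomatine positive control wells for full effect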; details: SKOV3ip1-GFP adhesion/invasion on 3D omental model, fluorescence; series mostly up to 45.8 µM; activity change, negative = inhibition: at the top concentration
Procedure, shortened: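 A 3D layer of primary human omental fibroblasts, mesothelial cells, fibronectin and collagen I, grown 48 hr, received SKOV3ip1-GFP cells in serum-free medium plus compounds at 0.36-46 umol/L. After 2 hr RT and 16 hr 37 C, fixed adherent GFP cells were counted; normalized to DMSO and tomatine.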
Potency means the concentration at half of the fitted maximal effect.

Structure (SMILES) | outcome | activity change, negative = inhibition | Potency
CCCN(CCC)C(=O)C1CCN(c2cc(C)nc3c(-c4ccc(Cl)cc4)c(C)nn23)CC1 | inactive | – | –
Cc1ccc(-c2c(C(=O)Nc3ccccc3F)oc(=O)c3ccccc23)cc1 | – | inactive: 3.06% | –
Cc1ccc(C)c(NC(=O)c2oc(=O)c3ccccc3c2-c2ccccc2)c1 | inactive | – | –
O=C(Nc1cccc(C(F)(F)F)c1)Nc1cc(S(=O)(=O)NC2CC2)ccc1-c1ccsc1 | – | inactive: -14.6% | –
CCCc1nn2c(=O)cc(COC(=O)c3ccc4c(c3)OCO4)nc2s1 | – | inactive: 7.39% | –
Cc1cc2nc(-c3ccc(OCc4ccccc4F)cc3)cc(C(F)(F)F)n2n1 | inactive | – | –
Cn1c(NCCN)nc2c1c(=O)n(Cc1ccccc1)c(=O)n2C | – | inactive: -0.772% | –
CCOC(=O)c1cccc(NC(=O)C2=C(C)C(=O)OC23CCCCC3)c1 | – | inactive: 2.49% | –
Cc1ccc(C)c(Cn2c(SCC(=O)NCc3ccccc3)nc3ccccc32)c1 | – | inactive: -0.75% | –
CCCn1c(=N)c(C(=O)NC2CCCCC2)cc2c(=O)n3cc(C)ccc3nc21 | – | inactive: -1.41% | –
CC(C)COc1ccc(C(=O)N(Cc2cccc(F)c2)C2CCS(=O)(=O)C2)cc1 (configuration not stated) | – | inactive: 5.46% | –
CCOc1ccc(S(=O)(=O)NCc2cccn2Cc2cccc(C)c2)cc1 | – | inactive: -11.5% | –
CCOC(=O)c1cnc2ccc(OCC)cc2c1NCCc1ccc(OC)c(OC)c1 | – | inactive: 8.55% | –
CCOC(=O)c1cc(-c2ccccc2)n(-c2cccc(C(=O)NC(C)(C)C)c2)c1C | – | inactive: 3.68% | –
Cc1ccc(NS(=O)(=O)c2c(C)nc3sc(C)c(C)n3c2=O)cc1F | inactive | – | –
Cc1ccc(C)c(N2CCN(C(c3ccccc3)c3nnc(-c4ccccc4)o3)CC2)c1 (configuration not stated) | – | inactive: 5.16% | –
CCCn1c2ccccc2c2cnn(CC(=O)NCCCOC(C)C)c(=O)c21 | – | inactive: 14.7% | –
CCN1CCc2c(sc(-n3cccc3)c2C(CCC(C)C)NC(=O)NCCC(=O)OC)C1 (configuration not stated) | inactive | – | –
CCc1cccc(C)c1NC(=O)C(NS(=O)(=O)c1ccc2c(c1)CCC(=O)N2)c1ccccc1 (configuration not stated) | inactive | – | –
Cc1cccc(NC(=O)c2cc3c([nH]c2=O)CC(c2ccccc2)CC3=O)c1 (configuration not stated) | – | inactive: -5.26% | –
COc1ccc(CCNC(=O)Cc2ccc(NC(=O)N3CCSc4ncccc43)cc2)cc1OC | – | inactive: 8.14% | –
COc1cccc(-c2nc(CS(=O)(=O)CC(=O)Nc3ccc(C)c(Cl)c3)c(C)o2)c1 | – | inactive: -7.29% | –
COc1ccc(C(=O)N2CCN(c3nc4c(OC)cccc4s3)CC2)cc1OC | – | inactive: -20.2% | –
COc1cccc(CNC(=O)Cn2cccc2C(=O)c2ccccc2)c1 | – | inactive: -9.1% | –
COC(=O)CCNC(=O)N1CCN(c2nnc(C)c3c(C)n(-c4ccccc4)nc23)CC1 | inactive | – | –

Structure (SMILES) | outcome | activity change, negative = inhibition | Potency
COc1cc(C(=O)NCc2nc(-c3ccc(Cl)cc3)no2)cc(OC)c1OC | – | inactive: 1.83% | –
O=C(Cn1c(=O)n(Cc2ccc(F)cc2)c(=O)c2sc3ccccc3c21)Nc1ccc(F)cc1F | inactive | – | –
CCc1ccc(CNC(=O)C2COc3ccccc3C2)cc1 (configuration not stated) | – | inactive: -10.8% | –
Cc1cccc(CN2C(=O)c3ccccc3S(=O)(=O)c3ccc(C(=O)OCC4CCCO4)cc32)c1 (configuration not stated) | – | inactive: 29.3% | –
COc1ccc(-c2cc(C(=O)Nc3c(C)nn(Cc4ccccc4C)c3C)no2)cc1 | inactive | – | –
NC(=O)c1ccc(-c2nc(-c3ccc4c(c3)OCCO4)c(-c3ccccn3)[nH]2)cc1 | – | inactive: 6.92% | –
CCc1ccc(C(=O)c2cn(CC(=O)Nc3ccc(F)cc3)c3ccc(F)cc3c2=O)cc1 | inactive | – | –
CCn1c(CNC(=O)c2ccc(OC)cc2)nnc1SCC(=O)Nc1ccc(F)cc1 | – | inactive: 3.82% | –
CCOc1ccc(C2CC(=O)Nc3c2c(=O)[nH]c2ncnn32)cc1 (configuration not stated) | inactive | – | –
Cc1cccc(C(=O)Nc2cc(-c3ccccc3F)nn2-c2ccccc2)c1 | – | inactive: -3.82% | –
CCOC(=O)c1cc(S(=O)(=O)N2CCN(c3ccccc3OC)CC2)[nH]n1 | – | inactive: 2.88% | –
COc1ccc(NC(=O)CSCc2cc(=O)c3cc(Cl)ccc3[nH]2)cc1 | – | inactive: -2.09% | –
Cc1ccc(N2CC(NC(=O)C3CCCCC3)CC2=O)cc1 (configuration not stated) | inactive | – | –
COc1ccc(NC(=O)C(C)N2Cc3ccccc3C2=O)cc1OC (configuration not stated) | – | inactive: -7.16% | –
COc1ccc(C(C)=O)cc1CSc1nc(NCc2ccccc2)c2ccccc2n1 | inactive | – | –
CC(CNC(=O)c1cc2cc(S(=O)(=O)N3CCCCC3)ccc2n1C)c1ccccc1 (configuration not stated) | inactive | – | –
COc1ccccc1CNC(=O)c1ccc2c(c1)nc(C)n2-c1cccc(C)c1 | – | inactive: -14.1% | –
Cc1ccc(CCNC(=O)c2sc3nc4n(c(=O)c3c2C)CCCC4)cc1 | – | inactive: -26.6% | –
Cc1ccc2c(c1)-c1c(cnc3cc(-c4ccc(Cl)cc4)nn13)CO2 | – | inactive: 62% | –
CC(C)CC(=O)n1nc(-c2ccco2)nc1NCc1ccc(Cl)cc1 | – | inactive: -8.33% | –
CC(C)OC(=O)c1ccc(NC(=O)CSc2nc(-c3cccs3)cc(C(F)(F)F)n2)cc1 | – | inactive: -7.42% | –
Cc1ccc(COC(=O)c2[nH]c3c(c2C)C(=O)CC(c2ccc(Cl)cc2)C3)cc1 (configuration not stated) | – | inactive: 0.0973% | –
COc1ccccc1OC(C)C(=O)N1CCC(c2nc3ccccc3s2)CC1 (configuration not stated) | – | inactive: -2.84% | –
COc1ccc(Cn2c(=O)c3ccccc3n3c(-c4ccc(C)cc4)nnc23)cc1 | – | inactive: 17.8% | –
Cc1ccc(C)c(CN2C(=O)CSc3ccc(C(=O)NCc4ccccc4)cc32)c1 | – | inactive: -14.6% | –

Structure (SMILES) | outcome | activity change, negative = inhibition | Potency
CCc1cccc(NC(=O)Cn2nc(C)c3sc4ccccc4c3c2=O)c1 | – | inactive: 6.97% | –
COc1ccc(Cn2c(C(=O)O)c(CNCc3ccc(C)o3)c3ccc(OC)cc32)cc1 | – | inactive: -8.73% | –
CCOc1ccc(NC(=O)c2ccc3nc(C(C)C)oc3c2)cc1 | – | inactive: -6.75% | –
COc1cc(C(=O)Nc2c(C(=O)Nc3ccccc3F)oc3ccccc23)cc(OC)c1OC | inactive | – | –
Cc1ccc(C)c(NC(=O)Cn2cc(S(=O)(=O)NC(C)C)c(S(=O)(=O)NC(C)C)c2)c1 | – | inactive: -24.6% | –
COc1ccc(NC(=O)c2cnc3sc(N4CCOCC4)nn3c2=O)c(OC)c1 | – | inactive: 4.26% | –
Cc1ccc(OCc2cc(=O)n3cc(C)sc3n2)c(NC(=O)c2ccco2)c1 | inactive | – | –
COc1ccc2c(c1)CC(NC(=O)Nc1ccc(Br)c(C)c1)CO2 (configuration not stated) | – | inactive: -5.42% | –
CCC(=O)N1c2ccc(S(=O)(=O)CCC(=O)N3CCN(c4ccc(F)cc4)CC3)cc2CC1C (configuration not stated) | inactive | – | –
O=C(Nc1cccc(NC(=O)c2ccc(Br)cc2)c1)c1ccccc1 | – | inactive: -10.1% | –
CCCn1c(NCc2ccccc2F)nc2ccccc21 | – | inactive: 3.76% | –
Cc1ccc(-c2nc(Cn3c(SCc4ccc(F)cc4)nc4cccnc43)c(C)o2)cc1 | – | inactive: -21.7% | –
COc1ccc(C(=O)Nc2nonc2-c2ccc(OC)c(OC)c2)cc1Cl | – | inactive: 9.73% | –
CCOC(=O)N1CCc2c(sc(NCc3cccc(F)c3)c2C(=O)Nc2ccc(OCC)cc2)C1 | inactive | – | –
CCCCCNC(=O)c1ccc2c(=O)n(CCc3ccccc3)c(=O)[nH]c2c1 | – | inactive: 8.62% | –
CCN(C(=O)c1cccn(Cc2cccc(Cl)c2)c1=O)c1ccccc1 | – | inactive: -29.7% | –
CCOC(=O)c1cc2c(=O)n3ccccc3nc2n(CC2CCCO2)c1=NC(=O)c1ccc(F)cc1 (configuration not stated) | – | inactive: 0.627% | –
O=C(NCc1cccc(F)c1)c1ccc2nc(CCc3ccccc3)oc2c1 | – | inactive: -7.27% | –
COc1ccc(-c2nnc(SCC(=O)Oc3cc(C)ccc3C)o2)cc1 | – | inactive: -7.65% | –
Cc1ccc(N2CC(NC(=O)C3CCCC3)CC2=O)cc1C (configuration not stated) | inactive | – | –
CC(C)Oc1ccc(CNC(=O)c2ccc3c(c2)N(C)C(=O)C2CCCCN32)cc1 (configuration not stated) | – | inactive: -5.76% | –
COc1ccc(CNc2ncnc3c2c(-c2ccccc2)cn3-c2cccc(C)c2)cc1 | – | inactive: 2.15% | –
CN[C@H]1[C@@H](O)[C@@H]2O[C@@H]3O[C@H](C)CC(=O)[C@]3(O)O[C@@H]2[C@@H](NC)[C@H]1O | – | inactive: -26% | –
CC(=O)c1ccc(S(=O)(=O)N2CCn3cccc3C2c2ccc(F)c(F)c2)cc1 (configuration not stated) | – | inactive: -8.08% | –
CN(C)C(=O)C(CCN1CCC(O)(c2ccc(Cl)cc2)CC1)(c1ccccc1)c1ccccc1 | – | inactive: 13.6% | –

Structure (SMILES) | outcome | activity change, negative = inhibition | Potency
CCc1cc(C(=O)NCc2ccc(F)cc2)no1 | – | inactive: 5.03% | –
Cc1ccc(NC(=O)CSc2nc(C3CCCC3)nc3c2c(=O)n(C)c(=O)n3C)c(C)c1 | – | inactive: -4.09% | –
O=C(CSc1nccn1-c1ccc(F)cc1)Nc1cccc2ccccc12 | – | inactive: 32.7% | –
COc1ccc(C(=O)Nc2cc(NC(=O)c3ccco3)ccc2OC)cc1Cl | inactive | – | –
CCc1nnc(SCc2nc(-c3cccc(C)c3)oc2C)c2cc3sc(C)cc3n12 | – | inactive: -3.04% | –
CCN1CCN(c2cc(C)c3cc(NC(=O)/C=C/c4ccc(OCCC(C)C)cc4)ccc3n2)CC1 | – | inactive: -21.2% | –
COc1cccc(NC(=O)C2CCN(S(=O)(=O)c3c(C)noc3/C=C/c3cccs3)CC2)c1 | – | inactive: 4.45% | –
CN1CCN(C2(CNC(=O)COc3ccc(C(C)(C)C)cc3)CCCCC2)CC1 | inactive | – | –
Cc1ccc(Cl)cc1Nc1nn2c(=O)c3ccc(C(=O)NC4CCC(C)CC4)cc3nc2s1 (configuration not stated) | – | inactive: -9.45% | –
O=C(Cn1c(=O)n(-c2ccc(F)c(Cl)c2)c(=O)c2sc3ccccc3c21)NC1CCCCC1 | inactive | – | –
Cc1ccc(NC(=O)C2CCCN(S(=O)(=O)c3cccc4nsnc34)C2)c(C)c1 (configuration not stated) | – | inactive: 5.4% | –
CCOc1ccc(C(=O)NCCc2csc(-c3cccnc3)n2)cc1 | inactive | – | –
Cc1ccc(OCCCCn2nnc3sc4c(c3c2=O)CCC(C)C4)cc1 (configuration not stated) | – | inactive: 2.25% | –
CCn1c(=N)c(C(=O)NC2CCCC2)cc2c(=O)n3cc(C)ccc3nc21 | – | inactive: -7.77% | –
CCOC(=O)c1c(-c2ccccc2)oc2cc(Br)c(OCc3ccccc3)cc12 | inactive | – | –
Cc1cc(C)cc(NC(=O)C2CCN(c3nc4ccccc4nc3C(F)(F)F)CC2)c1 | inactive | – | –
CCOc1ccc(-n2nc3ccc(NC(=O)COc4ccccc4)cc3n2)cc1 | – | inactive: 10% | –
CCC(C)S(=O)(=O)c1oc(-c2ccc(F)cc2)nc1S(=O)(=O)c1ccc(F)cc1 (configuration not stated) | – | – | active: 3.55 µM
CCc1ccc(NC(=O)Cn2c(=O)n(CCC(=O)NCCc3ccc(OC)c(OC)c3)c(=O)c3ccccc32)cc1 | – | inactive: 14.9% | –
COc1cc(C[C@@H](CO)[C@H](CO)Cc2ccc(O)c(OC)c2)ccc1O | – | inactive: -16% | –
CC(C)c1ccc(CNCCSc2nnnn2-c2ccccc2)cc1 | – | inactive: 5.52% | –
CCNC(=O)C1CCCN(c2nn3cc(-c4ccc(C)cc4)nc3s2)C1 (configuration not stated) | inactive | – | –
